Reference: paper PMC4336329 (PLoS ONE, 2015)
The whole screen tested about 310,000 compounds, of which about 14,000 (4.5%) showed an effect of 50% or more. Effects have a minus sign here. This is one part of the list.

Target: human ether-à-go-go-related gene (hERG) potassium channel (human, UniProt Q12809)
Assay: primary screen, population patch clamp on CHO cells stably expressing hERG
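Note: peak tail current of the secondary pulse compared with the same well before compound.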

Chain of human ether-à-go-go-related gene (hERG) potassium channel (Q12809 whole entry, looked up): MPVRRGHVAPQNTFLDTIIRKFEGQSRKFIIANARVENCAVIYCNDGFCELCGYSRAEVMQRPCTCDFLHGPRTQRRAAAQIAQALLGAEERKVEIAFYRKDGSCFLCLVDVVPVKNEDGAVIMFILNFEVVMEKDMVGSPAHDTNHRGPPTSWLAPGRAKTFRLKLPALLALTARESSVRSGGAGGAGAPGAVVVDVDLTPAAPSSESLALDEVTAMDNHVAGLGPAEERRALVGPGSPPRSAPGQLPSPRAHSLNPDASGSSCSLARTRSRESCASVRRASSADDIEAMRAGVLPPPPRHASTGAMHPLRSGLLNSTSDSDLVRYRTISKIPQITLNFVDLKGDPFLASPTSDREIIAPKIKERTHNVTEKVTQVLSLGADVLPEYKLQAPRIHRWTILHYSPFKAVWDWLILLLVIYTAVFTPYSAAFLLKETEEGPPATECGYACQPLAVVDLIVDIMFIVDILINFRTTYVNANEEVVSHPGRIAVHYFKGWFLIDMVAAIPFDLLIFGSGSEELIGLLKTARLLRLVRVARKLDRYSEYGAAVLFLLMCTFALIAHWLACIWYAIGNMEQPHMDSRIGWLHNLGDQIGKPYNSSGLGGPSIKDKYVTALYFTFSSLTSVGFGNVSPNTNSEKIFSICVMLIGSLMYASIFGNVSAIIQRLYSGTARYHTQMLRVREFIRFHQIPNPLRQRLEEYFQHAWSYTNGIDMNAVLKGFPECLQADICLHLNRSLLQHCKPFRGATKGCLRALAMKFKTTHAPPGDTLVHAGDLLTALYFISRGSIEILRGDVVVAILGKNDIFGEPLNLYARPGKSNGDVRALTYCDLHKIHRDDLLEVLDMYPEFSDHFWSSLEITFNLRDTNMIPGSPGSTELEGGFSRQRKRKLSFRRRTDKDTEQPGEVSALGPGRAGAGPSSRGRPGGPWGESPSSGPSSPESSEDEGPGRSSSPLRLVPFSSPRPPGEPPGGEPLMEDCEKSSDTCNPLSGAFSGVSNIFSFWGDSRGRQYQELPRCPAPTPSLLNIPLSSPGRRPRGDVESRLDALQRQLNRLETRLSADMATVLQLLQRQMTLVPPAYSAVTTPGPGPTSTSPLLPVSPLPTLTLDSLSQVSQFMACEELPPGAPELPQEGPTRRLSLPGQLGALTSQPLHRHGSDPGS

Compound | hERG current change (%, negative = inhibition) at 10uM
COc1ccc(NC(=S)NC(=O)/C=C/c2ccco2)c(OC)c1 | 1.82%
COc1ccc(CNC(=O)COC(=O)CNC(=O)c2sc3ccccc3c2Cl)cc1OC | 7.29%
COc1ccc(Cn2nc(C)n(N(C)c3ncc(C(F)(F)F)cc3Cl)c2=O)cc1 | -2.55%
O=c1[nH]c2cc3c(cc2cc1CN(Cc1ccco1)C(=S)NCC1CCCO1)OCCO3 (stereo not shown) | 2.8%
COC(=O)C(NC(=O)c1ccccc1)=C1C=C(C)OC(C)=C1 | 15.8%
O=C(Nc1ccccn1)c1cccc(S(=O)(=O)N2CCOCC2)c1 | -6.45%
COc1ccc(-n2nnnc2SCC(=O)N2CCCC2=O)cc1 | -7.03%
COc1cccc(OCC(O)CN2C(C)CCCC2C)c1.Cl (stereo not shown) | 10.8%
CCC(C)[C@H](NC(=O)N1CC(=O)Nc2ccccc21)C(=O)N1CCC[C@H]1C(=O)O (stereo partly shown) | -2.12%
O=C(/C=C/c1ccco1)Nc1ccccc1C(=O)Nc1cccc(C(=O)O)c1 | 11.9%
CC(=O)C(C)Oc1ccc2c3c(c(=O)oc2c1)CCCCC3 (stereo not shown) | 2.1%
O=C(NC1CCCC1)C1(c2ccccc2)CCN(S(=O)(=O)c2ccccc2)CC1 | -6.14%
Cc1sc2ncnc(N3CCN(S(=O)(=O)c4ccccc4)CC3)c2c1C | -18.6%
CCCCc1ccc(S(=O)(=O)NCCCN2CCCC2=O)cc1 | -5.75%
Cc1ccc2c(c1)N(C(=O)CCC(=O)NCCCN1CCOCC1)CC(C)O2 (stereo not shown) | -13.5%
COc1cc(S(=O)(=O)NCc2ccc3c(c2)OCO3)ccc1Cl | -26.1%
Cc1cc(/C=C2\C(=N)N3N=C(C(C)C)SC3=NC2=O)c(C)n1-c1ccccc1 | 29.4%
CCC(C)n1c(SCC(=O)NC(=O)Nc2ccc3c(c2)OCCO3)nc2ccccc2c1=O (stereo not shown) | 12.8%
O=C(NC(=S)Nc1ccc(S(=O)(=O)N2CCCC2)cc1)c1cccs1 | -16.5%
COc1ccc(C(=O)NC2CCSc3ccccc32)cc1 (stereo not shown) | -3.66%
Cc1ccc(-n2nc3c(c2NC(=O)c2ccco2)CS(=O)(=O)C3)cc1 | -25.7%
CCN(CC)C(=S)SCC(=O)Nc1ncc2c(n1)CC(C)(C)CC2=O | -13.5%

Compound | hERG current change (%, negative = inhibition) at 10uM
COc1ccc(N=Cc2cccc(C)c2O)cc1Cl | -0.875%
C/C(CC(=O)NCc1ccco1)=N\NC(=O)CC#N | 10.9%
CCCc1cc(=O)n2nc(N3CCC(C(=O)N4CCN(c5ccc(OC)cc5)CC4)CC3)sc2n1 | -29.6%
Cc1ccc(CN2CCN(/N=C/c3ccc(C(=O)O)cc3)CC2)cc1 | 5.6%
CN(C)CC(CCCCC(CN(C)C)C(=O)c1ccccc1)C(=O)c1ccccc1 (stereo not shown) | 9.78%
CCc1ccccc1NC(=O)Cn1nnc(-c2cccs2)n1 | 10.9%
O=C(O)C1CSC(c2ccccc2)N1C(=O)c1ccco1 (stereo not shown) | 14.7%
Cc1ccc(S(=O)(=O)NC(C)(C)C)cc1C(=O)OC(C)C(=O)NC1CC1 (stereo not shown) | 8.25%
O=C(NCc1ccccc1)c1ccc(CS(=O)(=O)c2ccc(Br)cc2)o1 | 4.76%
CS(=O)(=O)N(CC(=O)NCCSc1ccccn1)c1ccc(F)cc1 | 33.1%
O=C(O)CCCNC(=O)/C(=C\C=C\c1ccccc1)NC(=O)c1ccccc1Cl | -6.09%
O=C(CCc1ccc(S(=O)(=O)NC2CCCCC2)cc1)NCc1cccnc1 | -6.66%
O=S(=O)(NCc1cn2ccccc2n1)c1ccccc1F | -6.23%
COc1ccc(OCCn2cc(C=O)c3ccccc32)cc1 | -6.47%
COc1ccc(NC(=O)c2cc(C3CC3)on2)c(OC)c1 | -3.02%
COC(=O)N(NC(=O)C(O)(c1ccccc1)c1ccccc1)c1ccccc1 | 9.59%
CN(C)C(=O)CSc1nnc(-c2ccc(F)cc2)c2ccccc12 | -7.61%
CCNS(=O)(=O)c1cc(-c2nnc(OC)c3ccccc23)ccc1C | -37.3%
Cn1c(CN2CCOCC2)nnc1SCC(=O)NCCc1ccccc1 | -3.2%
CC1CC(C)CN(C(=O)CCc2nnc3ccc(N4CCCCC4)nn23)C1 (stereo not shown) | -6.94%
CCOc1ccc(NC(=S)c2ccc3ccccc3n2)cc1 | 8.39%
O=C(COC(=O)Cc1cccc(C(F)(F)F)c1)Nc1cccc2ccccc12 | 18%

Compound | hERG current change (%, negative = inhibition) at 10uM
CCn1c(-c2cc(-c3ccc(C)c(C)c3)nc3ccccc23)n[nH]c1=S | 20.5%
CCCc1cc(C(=O)NCc2cccnc2)no1 | 7.33%
CC(=O)C1=C(C)NC(SCSc2ccccc2)=C(C#N)C1c1cccnc1 (stereo not shown) | -40.2%
CC(C)c1onc(C(=O)N2CCN(c3ccccc3)CC2)c1[N+](=O)[O-] | 14.1%
CCCC1CCc2[nH]nc(C(=O)NN)c2C1 (stereo not shown) | 10.7%
Cc1nc(-c2ccc(Cl)cc2)sc1C(=O)O | 18.4%
O=C(CCC1CCCCC1)NCCN1C2=NC[C@H](Cc3ccccc3)N2C[C@H]1Cc1ccc(O)cc1 | -42%
CCC/C(O)=C1\C(=O)CC(C)(C)CC1=Nc1ccccc1O | 2.95%
CC(C)NC(=O)CSCc1ccccc1Cl | 12.9%
COCCCNC(=O)c1cc(Nc2ccc(OC)cc2OC)nc2ccccc12 | 16.7%
O=C(/C=C/c1ccc(Cl)cc1Cl)N1CCN(c2ccc([N+](=O)[O-])c(N3CCOCC3)c2)CC1 | -34.5%
COC(=O)c1ccc(NC(=S)N2CCN(Cc3ccc(Cl)cc3)CC2)cc1 | 1.51%
CCCCCCCCCCOC(=O)Cn1c(COc2cccc(OC)c2)[n+](C)c2ccccc21.[Cl-] | -76.7%
O=C(COC(=O)c1ncc(Cl)c(Cl)c1Cl)c1ccc(Cl)s1 | 4.81%
O=C(O)CCCCCn1c(SCC(=O)Nc2ccc(F)cc2)nc2ccsc2c1=O | 25.3%
Cc1cc2c(c(=O)n1CCc1ccccc1)C(C(C)C)C(C#N)=C(N)O2 (stereo not shown) | 5.58%
O=C(c1ccccc1)N1CN2CN(C(=O)c3ccccc3)CC([N+](=O)[O-])(C2)C1 | 21.8%
COc1ccc(CCNC(=O)C(=O)NCC2OCCN2S(=O)(=O)c2ccc(OC)cc2)cc1 (stereo not shown) | -47.3%
CC(C)CNC(=O)C(=O)N/N=C/c1cccs1 | -1.2%
O=c1c2ccccc2cnn1-c1ccc2ccccc2c1 | 2.34%
O=C(NCCn1cccn1)C1CCC(=O)N(CCc2cccc(F)c2)C1 (stereo not shown) | 0.7%
Cc1sc(NC(=O)Cn2nc(C(F)(F)F)cc2C)c(C(=O)OC(C)C)c1C | 9.3%

Compound | hERG current change (%, negative = inhibition) at 10uM
CCC(CC)C(=O)Nc1ccc(C)cc1O | 12.1%
CCOc1ccc(NC(=O)CCN2C(=O)CSc3ccccc32)cc1 | -25.3%
Cc1cccn2c(=O)c(/C=C(\C#N)S(=O)(=O)c3ccccc3)c(N3CCCCC3)nc12 | 9.28%
COc1ccc(CNC(=O)CN(C(=O)c2snc(C(N)=O)c2N)c2cccc(F)c2)cc1 | 16.4%
COc1cc(/C=N\NC(=O)c2cccnc2)ccc1OC(=O)c1ccccc1Cl | -7.3%
O=C(CCN1C(=O)S/C(=C\c2ccccc2)C1=O)N1CCCCC1 | -19.9%
CC(C)C(=O)C1=Cc2cc([N+](=O)[O-])ccc2OC1N1CCOCC1 (stereo not shown) | -3.01%
Cn1c(SCc2ccc(C#N)cc2)nnc1-c1ccncc1 | -19.7%
CCC1CCCCN1C(=O)c1ccc(OC)c(OC2CCN(C(C)C)CC2)c1 (stereo not shown) | -19.2%
CCC(C)[C@H](NC(=O)N1CCC(Cc2ccccc2)CC1)C(=O)O (stereo partly shown) | 15.2%
Cn1c(=O)c2c(nc(NCc3ccc4c(c3)OCO4)n2C)n(C)c1=O | -13.1%
CC(NC(=O)C1CCN(c2nnc(N3CCCC3=O)s2)CC1)c1ccccc1 (stereo not shown) | 12.2%
Cc1ccc(CNc2ccc(N3CCOCC3)cc2)s1 | -6.34%
O=C(OC1CCOC1=O)c1cccc(S(=O)(=O)Nc2ccc(F)cc2)c1 (stereo not shown) | -4.31%
CCN(CC)S(=O)(=O)c1ccccc1/C=N\O | -1.33%
COc1cccc(-c2csc(NC(C)=O)n2)c1 | 8.32%
CC1CN(c2ccccc2)C(=O)CS1 (stereo not shown) | 2.96%
CCOC(=O)c1cccc(NC(=O)CSc2nnc(-c3cccnc3)n2CC)c1 | -37.5%
CCOC(=O)N1CCN(C(=O)c2ccc(NC(=O)CC)cc2)CC1 | -4.3%
CN(C(=O)CSc1nnc(Nc2ccccc2)s1)C1CCS(=O)(=O)C1 (stereo not shown) | -14.8%
CCOC(=O)C1(CC2CCCCO2)CCN(S(=O)(=O)c2ccc(C)s2)CC1 (stereo not shown) | 9.12%
O=C(/C=C/c1ccccc1)NC(NC(=S)Nc1ccc(Cl)cc1Cl)C(Cl)(Cl)Cl (stereo not shown) | 11.1%
